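Cells were grown in 96-well plates and exposed to each compound for 48 hours at five concentrations; endpoints were interpolated linearly between bracketing concentrations, or set to the highest concentration if not reached. Abbreviation: GI50, concentration required for 50% inhibition of growth.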 For part of its entries the source gives two or more results. The list is limited to them. There may be further records. Results that share an entry are repeats (runs, samples, wells, individuals or studies). Records carry a tag for their origin. The letters are not those of the source and start again with each entry. Where a SMILES comes first, the peptide text is derived from it. The star is where a group is joined. Fmoc = O=C(OCC1c2ccccc2-c2ccccc21)*; Boc = CC(C)(C)OC(=O)*; OtBu = CC(C)(C)O*
Test system: SK-OV-3 ovarian
Experiment: NCI-60 cell line screen, 48 h

CC(C)(C)OC(=O)CCC(NC(=O)OCC1c2ccccc2-c2ccccc21)C(=O)NC(Cc1c[nH]c2ccccc12)C(=O)NC(CCCCNC(=O)OC(C)(C)C)C(=O)N1CCCC1C(=O)NCC(N)=O (stereo unspecified) (Fmoc-E(OtBu)WK(Boc)PG-NH2; configuration not given here)
GI50: > 100 µM [sample A, 1 test] and 953 nM [sample B, 1 test]

From PubChem BioAssay (NCI)
